{
  "source": "paper PMC4336329",
  "about": "(PLoS ONE, 2015)",
  "note": "The whole screen tested about 310,000 compounds, of which about 14,000 (4.5%) showed an effect of 50% or more. Effects have a minus sign here. Some of the results follow.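 Also: peak tail current of the secondary pulse compared with the same well before compound.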",
  "data": [
    {"biological_target": "human ether-à-go-go-related gene (hERG) potassium channel (human, UniProt Q12809)", "sequence (Q12809 whole entry, looked up)": "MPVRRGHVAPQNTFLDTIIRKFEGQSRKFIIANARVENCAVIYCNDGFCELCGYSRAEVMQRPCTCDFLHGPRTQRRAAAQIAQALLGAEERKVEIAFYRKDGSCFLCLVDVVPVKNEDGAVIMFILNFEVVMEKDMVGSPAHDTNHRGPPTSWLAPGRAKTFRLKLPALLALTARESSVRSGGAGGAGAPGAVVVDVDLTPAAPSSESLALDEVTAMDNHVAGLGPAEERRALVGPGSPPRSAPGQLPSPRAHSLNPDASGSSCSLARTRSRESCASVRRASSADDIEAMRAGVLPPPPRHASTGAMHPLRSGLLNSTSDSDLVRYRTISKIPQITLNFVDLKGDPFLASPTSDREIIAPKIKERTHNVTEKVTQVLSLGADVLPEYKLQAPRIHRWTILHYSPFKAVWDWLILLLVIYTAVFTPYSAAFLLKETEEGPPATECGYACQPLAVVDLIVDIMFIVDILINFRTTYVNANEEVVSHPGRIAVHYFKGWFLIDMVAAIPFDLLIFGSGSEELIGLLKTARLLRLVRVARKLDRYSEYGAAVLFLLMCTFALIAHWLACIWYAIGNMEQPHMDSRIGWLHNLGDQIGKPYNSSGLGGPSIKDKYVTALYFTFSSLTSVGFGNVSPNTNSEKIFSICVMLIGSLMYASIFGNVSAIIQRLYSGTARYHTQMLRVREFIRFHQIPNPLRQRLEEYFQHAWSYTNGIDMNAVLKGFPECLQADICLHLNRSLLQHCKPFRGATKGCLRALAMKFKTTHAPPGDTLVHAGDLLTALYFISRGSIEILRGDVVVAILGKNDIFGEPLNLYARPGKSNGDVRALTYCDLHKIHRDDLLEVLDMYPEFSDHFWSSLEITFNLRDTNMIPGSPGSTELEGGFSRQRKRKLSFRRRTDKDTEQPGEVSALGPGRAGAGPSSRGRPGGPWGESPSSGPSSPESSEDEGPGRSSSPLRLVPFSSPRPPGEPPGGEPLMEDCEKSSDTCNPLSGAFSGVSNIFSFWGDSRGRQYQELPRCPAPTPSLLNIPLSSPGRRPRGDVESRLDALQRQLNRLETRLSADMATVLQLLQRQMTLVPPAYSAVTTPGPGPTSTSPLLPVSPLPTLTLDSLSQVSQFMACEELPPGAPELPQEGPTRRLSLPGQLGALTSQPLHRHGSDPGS", "test": "primary screen, population patch clamp on CHO cells stably expressing hERG", "units": {"hERG current change (%, negative = inhibition) at 10uM": "%"}, "values": [
      {"molecule": "Oc1c(CN2CCN(c3ccc(F)cc3)CC2)cc(Cl)c2cccnc12", "hERG current change (%, negative = inhibition) at 10uM": -24.4},
      {"molecule": "O=C(O)c1cccc(-c2ccc(/C=N/NC(=O)C3COc4ccccc4O3)o2)c1", "note": "(centres unmarked)", "hERG current change (%, negative = inhibition) at 10uM": 1.12},
      {"molecule": "Cc1cc(Br)ccc1NC(=O)CN(C)C(=O)CNC(=O)Cc1ccccc1", "hERG current change (%, negative = inhibition) at 10uM": -8.23},
      {"molecule": "CCOc1cc(C(=O)NC(C)c2ccncc2)cc(OCC)c1OCC", "note": "(centres unmarked)", "hERG current change (%, negative = inhibition) at 10uM": -5.74},
      {"molecule": "COc1cc(/C=C/C(=O)OCC(=O)NC2CC2)cc(S(=O)(=O)N2CCc3ccccc32)c1OC", "hERG current change (%, negative = inhibition) at 10uM": -48.1},
      {"molecule": "COc1cc2[nH]c(=O)n(Cc3ccc(C(=O)NC4CCCC4)cc3)c(=O)c2cc1OC", "hERG current change (%, negative = inhibition) at 10uM": 8.5},
      {"molecule": "CC(C)Cn1cnc2c(c(-c3ccccc3)c(-c3ccccc3)n2Cc2ccco2)c1=N", "hERG current change (%, negative = inhibition) at 10uM": -73.3},
      {"molecule": "CC(=O)Nc1ccc(S(=O)(=O)N[C@@H](C)C(=O)N2CCN(C/C=C/c3ccccc3)CC2)cc1", "hERG current change (%, negative = inhibition) at 10uM": -31.8},
      {"molecule": "O=C(NCC1CCCO1)c1ccccn1", "note": "(centres unmarked)", "hERG current change (%, negative = inhibition) at 10uM": 6.15},
      {"molecule": "COc1ccc(CCNC(=O)CCCOc2ccc(Cl)cc2)cc1OC", "hERG current change (%, negative = inhibition) at 10uM": -15.3},
      {"molecule": "COc1ccc(/C(C)=N/NC2=NCCN2)cc1Cl", "hERG current change (%, negative = inhibition) at 10uM": -44.3},
      {"molecule": "CC(NC(=O)c1cc2cc(Br)ccc2oc1=N)c1ccccc1", "note": "(centres unmarked)", "hERG current change (%, negative = inhibition) at 10uM": 1.31},
      {"molecule": "CC(=O)c1ccc(Nc2ccc(-c3ccccc3F)nn2)cc1", "hERG current change (%, negative = inhibition) at 10uM": -4.25},
      {"molecule": "CCc1cc(C(=O)Nc2cc(Cl)ccc2N2CCN(C)CC2)sc1C", "hERG current change (%, negative = inhibition) at 10uM": 3.43},
      {"molecule": "O=S1(=O)N=C2CCCCCN2C(c2ccc(F)cc2)N1", "note": "(centres unmarked)", "hERG current change (%, negative = inhibition) at 10uM": 8.88},
      {"molecule": "O=c1oc2ccccc2n1Cc1cccc(Cl)c1", "hERG current change (%, negative = inhibition) at 10uM": 7.73},
      {"molecule": "CCSc1nnc(NC(=O)c2ccc3ccccc3n2)s1", "hERG current change (%, negative = inhibition) at 10uM": 13.4},
      {"molecule": "CS/C(N)=N/S(=O)(=O)c1ccc(NC(C)=O)cc1", "hERG current change (%, negative = inhibition) at 10uM": 17.6},
      {"molecule": "CCOC(=O)Cn1nc(NC(=O)c2ccc(C(=O)OC)cc2)cc1C", "hERG current change (%, negative = inhibition) at 10uM": 7.5},
      {"molecule": "CCc1ccc2[nH]c(=O)c(CN(CCCN3CCOCC3)C(=O)Nc3cccc(Cl)c3)cc2c1", "hERG current change (%, negative = inhibition) at 10uM": -54.1},
      {"molecule": "Cc1ccc(S(=O)(=O)N2CCCC(C(=O)NCCCN3CCCCC3C)C2)cc1", "note": "(centres unmarked)", "hERG current change (%, negative = inhibition) at 10uM": -26.4},
      {"molecule": "CCOc1ccc(C(=O)NCC(=O)OCc2c(C)noc2C)cc1OCC", "hERG current change (%, negative = inhibition) at 10uM": 23.2},
      {"molecule": "CCCCOC(=O)C(C#N)c1nc2ccccc2nc1N1CCOCC1", "note": "(centres unmarked)", "hERG current change (%, negative = inhibition) at 10uM": -12.8},
      {"molecule": "COc1nonc1NCn1nc(C)cc1C", "hERG current change (%, negative = inhibition) at 10uM": 16.2},
      {"molecule": "Cc1cc(=O)oc2cc(OC(C)C(=O)NCC3CCCO3)ccc12", "note": "(centres unmarked)", "hERG current change (%, negative = inhibition) at 10uM": 16.1},
      {"molecule": "Cc1cc(C)cc(N(C(=O)c2snc(C(N)=O)c2N)C(C(=O)NCC2CCCO2)c2ccc(C)o2)c1", "note": "(centres unmarked)", "hERG current change (%, negative = inhibition) at 10uM": -6.05},
      {"molecule": "N#C/C(=N\\Nc1ccccc1)C(N)=S", "hERG current change (%, negative = inhibition) at 10uM": 2.56},
      {"molecule": "CN(C(=O)C1CCN(S(=O)(=O)c2cccs2)CC1)C1CCCCC1", "hERG current change (%, negative = inhibition) at 10uM": -17},
      {"molecule": "O=C(c1cc2cc(Br)ccc2o1)N1CCOCC1", "hERG current change (%, negative = inhibition) at 10uM": -1.63},
      {"molecule": "Cc1ccc2[nH]c3c(c2c1)CN(C(=O)CN1C[C@H]2C[C@@H](C1)c1cccc(=O)n1C2)CC3", "hERG current change (%, negative = inhibition) at 10uM": -37.3},
      {"molecule": "CCn1c(=O)c2sccc2n2c(CCCC(=O)NCc3cccnc3)nnc12", "hERG current change (%, negative = inhibition) at 10uM": 23},
      {"molecule": "Cc1nn(C)cc1C(=O)Nc1cc(Oc2ccc(Cl)cc2)cc([N+](=O)[O-])c1", "hERG current change (%, negative = inhibition) at 10uM": 1.54},
      {"molecule": "CNC(=O)c1[nH]cnc1C(=O)N[C@@H](CC(C)C)C(=O)OC(C)(C)C", "hERG current change (%, negative = inhibition) at 10uM": -10.5},
      {"molecule": "N/C(=N\\OC(=O)CCCOc1ccccc1)c1ccncc1", "hERG current change (%, negative = inhibition) at 10uM": -2.02},
      {"molecule": "C/C(=N\\NC(=O)C(c1ccccc1)c1ccccc1)c1ccccn1", "hERG current change (%, negative = inhibition) at 10uM": -5.44},
      {"molecule": "CCC(=O)N1N=C(c2c(-c3ccccc3)c3cc(Cl)ccc3[nH]c2=O)CC1c1ccco1", "note": "(centres unmarked)", "hERG current change (%, negative = inhibition) at 10uM": -8.72},
      {"molecule": "Cc1ccc(NC(C(N)=O)c2c(C)[nH]c(=O)[nH]c2=O)cc1", "note": "(centres unmarked)", "hERG current change (%, negative = inhibition) at 10uM": 9.36},
      {"molecule": "CCOc1ccccc1NC(=O)CSc1nc(=O)n(Cc2ccccn2)c2c1CCC2", "hERG current change (%, negative = inhibition) at 10uM": -36.5},
      {"molecule": "COc1ccc(NC(=O)c2csc3c2CCCC3)cc1", "hERG current change (%, negative = inhibition) at 10uM": -1.97},
      {"molecule": "CN(C[C@@H](CC1CCCCC1)N(C[C@H](Cc1ccccc1)N(CCc1ccccc1)N=O)N=O)N=O.[Na+]", "hERG current change (%, negative = inhibition) at 10uM": 12.2},
      {"molecule": "COC(=O)C1C2CCC(C2)C1C(=O)OCC(=O)c1ccc(C)cc1", "note": "(centres unmarked)", "hERG current change (%, negative = inhibition) at 10uM": -19.5},
      {"molecule": "Cc1cccc(/C=N\\Nc2nnc(-c3ccccc3)c(=O)[nH]2)c1", "hERG current change (%, negative = inhibition) at 10uM": -6.75},
      {"molecule": "COC(=O)c1cc(OC(=O)c2ccc(=O)[nH]c2)cc(C(=O)OC)c1", "hERG current change (%, negative = inhibition) at 10uM": -5.48},
      {"molecule": "O=C(Nc1nc2ccc(S(=O)(=O)N3CCCC3)cc2s1)c1ccccn1", "hERG current change (%, negative = inhibition) at 10uM": -16.6},
      {"molecule": "CC1=NN(c2ccccc2)C(=O)C1/C=C1\\C(=O)NC(=O)N(c2ccc(C)c(C)c2)C1=O", "note": "(centres unmarked)", "hERG current change (%, negative = inhibition) at 10uM": 11.8},
      {"molecule": "Cc1onc(-c2ccccc2Cl)c1C(=O)Nc1sc2c(c1C#N)CCC2", "hERG current change (%, negative = inhibition) at 10uM": 5.11},
      {"molecule": "Cc1ccccc1S(=O)Cc1ccc(C(=O)N2CCN(C(=O)c3ccco3)CC2)o1", "note": "(centres unmarked)", "hERG current change (%, negative = inhibition) at 10uM": 17.4},
      {"molecule": "O=C(N1CCN(c2ccccc2F)CC1)C12CC3CC(CC(C3)C1)C2", "hERG current change (%, negative = inhibition) at 10uM": -17.6},
      {"molecule": "CCC(C)NC(=O)c1cc2c(=O)n(CC)c3ccccc3c2s1", "note": "(centres unmarked)", "hERG current change (%, negative = inhibition) at 10uM": -10.6},
      {"molecule": "Cc1onc(-c2ccccc2)c1C(=O)N1CCCCCC1", "hERG current change (%, negative = inhibition) at 10uM": 6.94},
      {"molecule": "Cc1ccc(S(=O)(=O)NNC(=O)c2cc3cc4ccccc4nc3s2)cc1", "hERG current change (%, negative = inhibition) at 10uM": -7.88},
      {"molecule": "COc1ccc(C(=S)N2CCCC2)cc1C", "hERG current change (%, negative = inhibition) at 10uM": 4.72},
      {"molecule": "O=C(COC(=O)c1ccccc1NC(=O)c1ccco1)NCc1ccc2c(c1)OCO2", "hERG current change (%, negative = inhibition) at 10uM": 0.815},
      {"molecule": "O=C(CSc1nc(C(F)(F)F)cc(=O)[nH]1)N1CCC(Cc2ccccc2)CC1", "hERG current change (%, negative = inhibition) at 10uM": -18.4},
      {"molecule": "CN(C)C(=O)N1CCCC(C(=O)NCc2ccccc2Cl)C1", "note": "(centres unmarked)", "hERG current change (%, negative = inhibition) at 10uM": -14.7},
      {"molecule": "O=C(O)CCc1nc2cccnc2n1Cc1ccccc1", "hERG current change (%, negative = inhibition) at 10uM": -24.6}
    ]}
  ]
}
